# Results published in article PMC4336329 (PLoS ONE, 2015).
# Screen size: about 310,000 compounds; about 2,200 (0.71%) showed an effect of 50% or more. Effects have a minus sign here. The list shows a part of the results.
# Target: human ether-à-go-go-related gene (hERG) potassium channel (human, UniProt Q12809)
# Assay: primary screen, population patch clamp on CHO cells stably expressing hERG
# Sequence of human ether-à-go-go-related gene (hERG) potassium channel (Q12809 whole entry, looked up): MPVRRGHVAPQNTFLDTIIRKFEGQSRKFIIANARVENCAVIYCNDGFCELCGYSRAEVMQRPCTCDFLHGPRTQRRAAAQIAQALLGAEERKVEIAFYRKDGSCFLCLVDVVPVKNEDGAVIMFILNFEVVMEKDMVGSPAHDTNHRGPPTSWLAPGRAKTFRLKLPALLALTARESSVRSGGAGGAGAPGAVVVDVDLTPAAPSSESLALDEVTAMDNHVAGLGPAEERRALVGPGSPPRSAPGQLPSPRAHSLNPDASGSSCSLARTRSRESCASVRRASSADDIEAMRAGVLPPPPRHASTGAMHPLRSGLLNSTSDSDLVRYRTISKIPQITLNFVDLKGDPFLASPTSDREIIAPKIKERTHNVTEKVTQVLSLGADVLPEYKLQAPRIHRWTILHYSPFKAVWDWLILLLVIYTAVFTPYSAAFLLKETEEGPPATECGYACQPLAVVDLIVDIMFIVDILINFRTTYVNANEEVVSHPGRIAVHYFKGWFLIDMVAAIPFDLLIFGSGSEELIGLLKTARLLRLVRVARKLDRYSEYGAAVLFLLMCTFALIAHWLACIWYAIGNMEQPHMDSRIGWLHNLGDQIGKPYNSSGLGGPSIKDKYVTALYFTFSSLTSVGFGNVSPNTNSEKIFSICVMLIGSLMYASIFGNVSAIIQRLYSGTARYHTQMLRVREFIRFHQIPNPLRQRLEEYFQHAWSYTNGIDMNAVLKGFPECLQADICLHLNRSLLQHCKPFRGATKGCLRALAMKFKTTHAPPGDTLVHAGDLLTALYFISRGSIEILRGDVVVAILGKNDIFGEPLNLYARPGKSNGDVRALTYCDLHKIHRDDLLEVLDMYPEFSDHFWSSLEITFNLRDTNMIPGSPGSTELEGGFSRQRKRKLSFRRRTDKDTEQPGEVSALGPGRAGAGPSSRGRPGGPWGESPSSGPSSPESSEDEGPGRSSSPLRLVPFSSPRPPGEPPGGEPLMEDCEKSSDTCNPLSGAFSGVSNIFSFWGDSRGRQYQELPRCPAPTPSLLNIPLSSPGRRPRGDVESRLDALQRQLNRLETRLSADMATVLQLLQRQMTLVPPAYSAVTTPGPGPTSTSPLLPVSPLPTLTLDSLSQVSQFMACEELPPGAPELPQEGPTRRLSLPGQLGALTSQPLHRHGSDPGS
row,Structure (SMILES),"hERG current change (%, negative = inhibition) at 1uM [%]"
1,CCOC(=O)c1c(C)n(C)c2ccc(OC)c(NC(=O)c3cccs3)c12,13.3
2,C#CCOc1c(Br)cc(/C=C2/C(=O)ON=C2C)cc1OC,24.9
3,NC(=O)c1ccccc1NC(=O)N1CCOCC1,8.57
4,O=C(Cc1cccs1)NCc1cccc(Cl)c1,9.08
5,CC(C)(C)NC(=O)C(c1ccncc1)N(Cc1ccco1)C(=O)c1ccc(-c2ccccc2)[nH]1 (stereo not drawn),7.8
6,O=C1c2cccnc2C(=O)N1Cc1ccc(Cl)cc1,1.82
7,Cc1c(Cl)ccc2sc(N3CCN(C(=O)C4=COCCO4)CC3)nc12,6.27
8,CCN(CC)CCN=Cc1c(O)n(CCC2=CCCCC2)c(=O)[nH]c1=O,-46
9,CCOc1cc(/C=N/Nc2nnc(C)n2N)ccc1O.Cl,14.9
10,CC1(C)SC2c3ccccc3C(=O)N2[C@@H]1C(=O)NC1CCCC1 (stereo partly drawn),-2.03
11,Cc1nc(N)ncc1-c1ccc2c(c1)OCO2,14.6
12,CC(C)n1cc(CN2CCCC(C(=O)Nc3cccc(-c4cc5ccccc5[nH]4)c3)C2)cn1 (stereo not drawn),1.21
13,O=C(CSc1n[nH]c(C2CCCC2)n1)NC1CCCC1,1.83
14,N#Cc1sc2nc(C3CC3)cc(-c3ccccc3)c2c1N,0.0178
15,COc1ccc(S(=O)(=O)Nc2ccc(O)c3ccccc23)cc1,5.1
16,CCOC(=O)c1c(NC(=O)c2ccco2)sc2c1CCCC2,3.16
17,N#Cc1ccccc1Sc1ccccc1C(=O)OCC(=O)NC12CC3CC(CC(C3)C1)C2,4.54
18,CC(CC(C)C(=O)Nc1ccccc1C(C)(C)C)C(=O)O (stereo not drawn),6.18
19,CS(=O)(=O)Oc1ccc2c(c1)O/C(=C\c1cccnc1)C2=O,4.56
20,O=C(Nc1cccc(C(F)(F)F)c1)c1cccn(Cc2ccc3c(c2)OC(F)(F)O3)c1=O,-1.04
21,COc1ccc2cc(C#N)c(N3CCN(C(=O)c4ccccc4C)CC3)nc2c1,5.62
22,Cc1ccc(S(=O)(=O)N(CC(=O)Nc2cccc([N+](=O)[O-])c2)C2CCCCC2)cc1,10.2
23,N/C(=N/O)c1nc(N2CCCC2)nc(N(c2ccccc2)c2ccccc2)n1,10.3

row,Structure (SMILES),"hERG current change (%, negative = inhibition) at 1uM [%]"
1,CCCCc1ccc(NC(=O)CN(C)CC(=O)Nc2ccccc2Cl)cc1,-1.58
2,Cc1csc(SCCn2c(Br)nc3c2c(=O)[nH]c(=O)n3C)n1,-0.127
3,CN(C)C1=NC[C@H](Cc2ccccc2)N1CCCC1CCCCC1,-29.5
4,COc1ccccc1C(=O)NCCC(=O)N1CCN(c2ccccc2Cl)CC1,-2.06
5,COc1ccc(CC(=O)Oc2ccc(Br)cc2F)cc1S(=O)(=O)N1CCOCC1,-4.42
6,O=C(NCc1ccc2c(c1)OCO2)C1COc2ccccc2O1 (stereo not drawn),9.41
7,O=C1C2CC=CCC2C(=O)N1c1ccc(NCCc2ccc(Cl)cc2)c([N+](=O)[O-])c1 (stereo not drawn),10.3
8,COc1ccc(S(=O)(=O)NCc2cc(=O)n(C)c(=O)n2C)cc1C,12.6
9,Cl.O=C(CCN1CCOCC1)N1c2ccccc2Sc2ccc(Cl)cc21,5.51
10,COc1ccc(CC(=O)N/N=C(/C)c2ccco2)cc1,1.26
11,CCOc1cc(/C=N/NC(=O)C(=O)NCc2cccnc2)ccc1O,14.4
12,CCN(c1ccccc1)S(=O)(=O)c1cccc(C(=O)Nc2ccc(C)cn2)c1,9.97
13,N/C(=N\OC(=O)CCCc1ccccc1)c1ccccc1Cl,6.08
14,CC(=O)n1c(=O)c2ccccc2c(=O)n1-c1ccccc1,6.47
15,O=C1NC2(Nc3ccccc31)C(=O)Nc1ccc(Br)cc12 (stereo not drawn),5.54
16,c1ccc(-c2cc(-c3ccccc3)[nH]n2)cc1,13.5
17,CCSc1nc2ccccc2n1CC(=O)O,21.7
18,O=C(Nc1ccccc1O)c1ccc2c(c1)C(=O)N(N1C(=O)c3ccccc3C1=O)C2=O,9.83
19,O=C(O)C1CC(c2ccccc2F)=NO1 (stereo not drawn),10.9
20,CC1(C)Cc2c(ccc3ccccc23)/C(=C/C#N)N1,23.1
21,C/C=C/c1ccc(OCc2cc(=O)n3cc(C)ccc3n2)c(OC)c1,-5.19
22,Cc1ccc(C(=O)N/C(N)=N/c2nc3ccccc3o2)cc1,9.08
23,CN(C)C(=O)CC12CC3CC(C1)CC(CC(=O)N(C)C)(C3)C2,2.51

row,Structure (SMILES),"hERG current change (%, negative = inhibition) at 1uM [%]"
1,CCCCCCC(=O)NC(Nc1ccc(S(N)(=O)=O)cc1)C(Cl)(Cl)Cl (stereo not drawn),3.92
2,CCOc1ccc(C(CC(=O)O)NC(=O)C2c3ccccc3Oc3ccccc32)cc1 (stereo not drawn),10.4
3,COc1ccc(C2(C)ON(c3ccccc3C(F)(F)F)C2=O)cc1 (stereo not drawn),17.6
4,N#Cc1ccccc1NC(=O)CSc1nnc(-c2ccccc2O)n1-c1ccccc1,15
5,O=C(NC1CCN(Cc2ccccc2)CC1)c1ccc(N2CC3CC(C2)c2cccc(=O)n2C3)c([N+](=O)[O-])c1 (stereo not drawn),26.7
6,O=C1Cc2cc([N+](=O)[O-])ccc2N1c1c(Cl)cccc1Cl,7.64
7,COc1ccc(CSc2nc3ccccc3c(=O)n2CCCN2CCOCC2)cc1F,-4.21
8,Cc1cc2nccc(-c3ccccn3)n2n1,2.32
9,S=C(Nc1ccc(Cl)cc1Cl)NC1CCN(Cc2ccccc2)CC1,0.0454
10,COc1ccc(C(CCNC(C)c2ccccc2)c2ccc(F)cc2)cc1 (stereo not drawn),11.4
11,COc1ccc2ccc(=O)oc2c1CC=C(C)C,14
12,COc1ccc(NC(=O)CSc2ccc(NC(C)=O)cc2)cc1S(=O)(=O)N1CCCCC1,7.16
13,CC(/C=N/NC(=O)c1cc(-c2cccs2)[nH]n1)=C\c1ccccc1,3.6
14,Oc1ccc(Br)cc1CNc1nccs1,15.7
15,COC(=O)c1sc(N2C(=O)C(O)=C(C(=O)c3ccc(C)o3)C2c2ccc(OC)c(OC)c2)nc1C (stereo not drawn),8.5
16,O=C(c1cc2cc([N+](=O)[O-])ccc2oc1=O)N1CCN(c2ncccn2)CC1,9.91
17,Cc1cccn2c(=O)nc(SCC(=O)NC3CCCC3)nc12,4.84
18,Cc1cccc(NC(=O)c2cccc(C(=O)Nc3cccc(C)n3)c2)n1,5.03
19,Cc1cc(C)cc(Nc2nc3ccc(C)cc3n3cnnc23)c1,9.93
20,CCc1ccc(C2=NN(CCC(=O)NC3CC3)C(=O)CC2)cc1,11.3
21,C/C(CC(=O)Nc1ccc(Cl)c(C(F)(F)F)c1)=N\NC(=O)c1cnccn1,-13.6
22,CS/C(=C\[N+](=O)[O-])Nc1ccccc1,21.3
23,CCOC(=O)Nc1ccc2c(c1)N(C(=O)OCCN(C)C)c1ccccc1CC2.Cl,-14.5

row,Structure (SMILES),"hERG current change (%, negative = inhibition) at 1uM [%]"
1,CN(C)CCOC1c2ccccc2CSc2ccccc21.O=CO (stereo not drawn),5.14
2,COc1cc(C(=O)NCc2ccc3c(c2)OCO3)c([N+](=O)[O-])cc1OC,12
3,C/C(=N\Nc1cccc2cccnc12)c1ccc(N)cc1,4.13
4,COc1ccc2[nH]cc(CCNC(=O)c3ccccc3Cl)c2c1,12.1
5,CC(=O)c1cccc(NC(=O)N[C@@H](CC(C)C)C(=O)O)c1,3.17
6,Fc1ccc(-c2csc(/C=C/c3ccc4c(c3)OCO4)n2)cc1,15.1
7,O=C(CSc1ncn[nH]1)c1ccccc1,14.6
8,Cc1cccnc1NC(=O)NC(=O)c1ccc(C(C)(C)C)s1,14.1
9,COc1ccc(C=NC(CO)C(O)c2ccc([N+](=O)[O-])cc2)cc1 (stereo not drawn),14.6
10,CCN(CC)CCOc1nc(C)nc2c1oc1ccccc12.Cl,-32
11,O=C(Cn1cc(C(F)(F)F)ccc1=O)N/N=C/c1ccc(Cl)c(Cl)c1,-1.14
12,CN(C)C(=O)c1ccc(NC(=O)c2cccc(S(=O)(=O)N3CCCCCC3)c2)cc1,1.1
13,CN(C=[N+](C)C)c1cccc2c1C(=O)c1ccccc1C2=O.[Cl-],1.22
14,CCN(CC)S(=O)(=O)c1cc(C(=O)N2CCc3ccccc32)ccc1Cl,8.71
15,Cc1cc(NCc2ccco2)n2c(nc3ccccc32)c1C#N,9.3
16,Cc1ccc(Cl)cc1N1CCN(Cc2nc3c(c(=O)[nH]c(=O)n3C)n2Cc2ccccc2F)CC1,10.6
17,COc1cc(C(=O)NC(=S)NCc2ccco2)cc(OC)c1OC,3.84
18,Cc1cc(NC(=O)Cn2cc([N+](=O)[O-])cn2)no1,12.8
19,CCOC(=O)CC(=O)CSc1nc2ccccc2c(=O)n1-c1ccc(C(=O)NCCOC)cc1,11.6
20,CC1(C)C(=O)OC(c2ccco2)C(C)(C)C1=O (stereo not drawn),-1.51
21,CCN(c1ccccc1)S(=O)(=O)c1ccc(Cl)c(NC(=O)COC(=O)c2cc(O)c3ccccc3c2O)c1,16.3
